Results as given in the RNAGym collection of RNA variant scans (doi:10.1093/nar/gkz1192).
Read counts are not given, so values of variants with three or more changes are uncertain.

B1: CPEB3 Ribozyme (parent)
chain: UAACAGGGGGCCACAGCAGAAGCGUUCACGUCGCAGCCCCUGUCAGAUUCUGGUGAAUCUGCGAAUUCUGCUGUAUAUCUC

Variants of: B1
Test: self-cleavage, relative activity (ratio to wild type); higher = more cleavage; in vitro, sequencing
Procedure, shortened: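 Relative activity compares each variant's cleaved/total read fraction with that of the unmutated ribozyme. To get these fractions, barcoded CPEB3 ribozyme libraries from rounds of error-prone PCR were transcribed with T7 RNA polymerase for 5 hours at 37°C and then given 15 min of DNase I treatment before EDTA was added. The RNAs were reverse transcribed with template switching and sequenced on Illumina, and DNA sequencing linked barcodes to variants. A minimum of 5 reads applied, and three batches were averaged.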

Row | Variant | self-cleavage
1 | C27A U54A U58A | 0.19
2 | U26G A64G U72G U78A | 0.17
3 | U26G U31C U78C | 0.09
4 | U26C U72C U78C | 0.47
5 | U26G A45G U69A | 0.08
6 | U26C U41C A45U | 0.26
7 | U26C U41C A45G | 0.42
8 | U26C U54A C71G U78C | 0.09
9 | C27G G33U U54A | 0.07
10 | U26C U67A U72C U78C | 0.26
11 | C27A C32U U43C | 0.46
12 | U26C U41A U72C | 0.15
13 | U26C U48C A57G | 0.48
14 | U26G U72C U78A | 0.1
15 | C27A A47U U58A A65G | 0.13
16 | C27U A28U A56G | 0.19
17 | U26C U41C U49A U78C | 0.37
18 | U26C U41C G42U U49C U74C | 0.06
19 | U26C U41C U48C U76A A77U | 0.3
20 | U26C U72C U76C | 0.75
21 | C27U A47G U51C A56U A57G | 0.13

Row | Variant | self-cleavage
22 | U26C U43C U69C U78C | 0.12
23 | U26C U54C U74C | 0.81
24 | U26C U48C U54A U60A | 0.2
25 | U26C U54C G73U | 0.87
26 | U26C U72A U74C | 0.72
27 | U26C U72A U74A | 0.5
28 | U26C U43C U60C | 0.28
29 | U26C U58A C59A U80G | 0.16
30 | U26C U60C A77G | 0.33
31 | U26C U41C G53U U67C | 0.38
32 | U26C U51C A56G | 0.19
33 | C27A A56U U78C | 0.14
34 | C27U A57G U66C U72A | 0.23
35 | C27A A35G U41C A45C U51C A65G U67C | 0.02
36 | C27A U69A A75G U80C | 0.08
37 | U26C U41A U54C U67A | 0.16
38 | C27A U41A A45C A56G U60G | 0.08
39 | U26C U48A U80C | 0.32
40 | C27G U43A U72A | 0.07
41 | U26C U51C U78A | 0.55
42 | C27G U69C U76C U80C | 0.02

Row | Variant | self-cleavage
43 | U26C U49G U54A | 0.15
44 | C27A A28C C32A U67A U74C | 0.05
45 | U26C U41A U74A | 0.37
46 | C27G A35G A65G | 0.1
47 | U26G U41C A56G | 0.53
48 | C27G A28G G73A U78C | 0.29
49 | U26C U51A U60C | 0.12
50 | C27A U54A U69C A75U | 0.19
51 | U26G A35G U41A A56G C62U A64G U74A | 0.06
52 | U26C U41C U66C | 0.39
53 | U26C U41C A47G G61A | 0.45
54 | U26G A47G U49C U76A | 0.06
55 | U26C U54C A65C U72C | 0.16
56 | U26G U41C A47U U48C C71A | 0.17
57 | U26C U48C U60C U78C U80C | 0.31
58 | C27U C29A C62U U66C U78C | 0.16
59 | C27G U43C U58C G63U | 0.18
60 | U26C U51C G52U | 0.41
61 | C27A U31A A65G G70U U78C | 0.05
62 | C27G A56U U58A | 0.04
63 | U26C U43A U48G C62G U78C | 0.06

Row | Variant | self-cleavage
64 | U26C U69C U72C | 0.35
65 | U26C U43A A45G | 0.24
66 | U26C U54C C62U C68A A75G U80C | 0.06
67 | C27A A56G U58C | 0.13
68 | C27A U74G U78A | 0.19
69 | U26C U43C A56U U72A A77U | 0.42
70 | U26C U43C U48C U58C U74C | 0.18
71 | U26G G30A U72A | 0.05
72 | U26C U41A A56C U76C | 0.19
73 | C27A A28U A45G A56G U72A A77U | 0.07
74 | U26G C71U U74A | 0.25
75 | U26C U41A A75U | 0.06
76 | C27G U43C U67C C68U | 0.13
77 | U26C U43C U48A A77U | 0.36
78 | U26C U43C U66C U67A | 0.38
79 | U26C U51C U58A | 0.32
80 | U26C U49A U60C | 0.15
81 | U26C U48C U66C | 0.4
82 | C27G C44U C59A | 0.18
83 | U26C U41C G70C | 0.11
84 | U26G A35U U60C | 0.05
